According to PubChem BioAssay AID1240 (Sanford-Burnham Center for Chemical Genomics, 2008):
Hit rate of the full screen: of about 50,000 compounds, about 800 (1.6%) showed an effect of 50% or more. Some of the results follow.

Molecular target: Bcl-2-like protein 10 (Homo sapiens) (UniProt Q9HD36)
Assay: Phenotype converters, Bcl-B/TR3 peptide binding displacement, primary biochemical FP (AID 1240);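 also: 0% = Bcl-B with tracer peptide and DMSO and 100% = tracer peptide lacking Bcl-B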
Details: GST-Bcl-B / FITC-TR3 peptide fluorescence polarization; stronger effect = higher value; compound at 3.75 mg/L

UniProt Q9HD36, sequence (Q9HD36 whole entry, looked up): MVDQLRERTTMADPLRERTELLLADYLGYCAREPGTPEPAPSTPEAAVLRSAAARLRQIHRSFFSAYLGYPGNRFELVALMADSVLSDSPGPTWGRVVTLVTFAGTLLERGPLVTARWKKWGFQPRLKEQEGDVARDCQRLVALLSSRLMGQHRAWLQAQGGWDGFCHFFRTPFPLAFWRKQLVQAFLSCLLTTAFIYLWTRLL

Row | Compound | displacement [%]
1 | Cc1ccc(NC(=O)C2C3C4CCC(C4)C23)cc1 (centres undefined) | -12.9
2 | Cc1ccc2c(c1)c1c3n2CCN(CCC#N)C3CCC1 (centres undefined) | 18.4
3 | C=CCOc1ccc(C=C2C(=O)NC(=O)NC2=O)cc1OC | 11.5
4 | COC(=O)c1ccc(C(=O)OC)c(NC(=O)CCN2C(=O)c3ccccc3C2=O)c1 | 0
5 | Cc1oc(-c2ccccc2)cc1C(=O)Nc1ccc(N(C)C)cc1 | -0.2
6 | CCCOc1ccc(N2C(=O)CC(NCc3cccnc3)C2=O)cc1 (centres undefined) | 1.7
7 | CCOc1ccccc1NC(=O)c1c(NC(=O)c2ccccc2Cl)sc2c1CCC(C)C2 (centres undefined) | -11
8 | CCCOc1ccc(CCC(=O)O)cc1 | 6.3
9 | Cc1ccc2oc(-c3ccc(C)c(NC(=O)c4ccc(Cl)cc4Cl)c3)nc2c1 | -0.4
10 | COc1cccc(-c2nc3cc(NC(=O)Cc4ccccc4)ccc3o2)c1 | -8.7
11 | O=C(O)c1cccc(NC(=O)c2ccc3ccccc3n2)c1 | -1.9
12 | CC(=O)Oc1ccc2c(c1)oc(=O)c1c3cc(OC(C)=O)c(OC(C)=O)cc3oc21 | 12.7
13 | COc1ccc(/C=C/C(=O)Nc2ccc(OCc3ccccc3)cc2)cc1 | -2.2
14 | O=[N+]([O-])c1ccc(-c2noc(-c3ccccc3Br)n2)cc1 | 4.3
15 | CC(C)Oc1ncnc2sc3c(c12)CCCC3 | -2.4
16 | CC(=O)Nc1cccc(Oc2ccc3c(c2)C(=O)N(c2ccccc2)C3=O)c1 | 2.4
17 | COc1ccc(N2C(=O)/C(=C/c3cc(C)n(-c4ccccc4)c3C)C(=O)NC2=S)cc1 | 7
18 | CC(=O)Nc1c(-c2ccccc2)c(C)nn1Cc1ccccc1 | -13.6
19 | CC1=C(C(=O)OCc2ccccc2)C(c2ccccn2)C2=C(CCCC2=O)N1 (centres undefined) | -2.3
20 | N#Cc1c(-c2cccc(Br)c2)cc(C2CC2)nc1N | 2.3
21 | COc1cc(/C=C2\C(=O)NC(=O)N(c3ccc(F)cc3)C2=O)ccc1OCc1cccc(F)c1 | -10.4
22 | COc1ccc(C(NS(=O)(=O)c2ccc(C)c([N+](=O)[O-])c2)c2ccccc2)cc1 (centres undefined) | -8.1

Row | Compound | displacement [%]
23 | Oc1ccc(/C=N/Nc2cc(N3CCCC3)nc(N3CCCC3)n2)cc1 | 12
24 | CCCSc1nsc(SCCC)c1C(N)=O | -7.4
25 | COc1ccccc1Nc1ncnc2ccc(C)cc12 | 12
26 | CCOC(=O)c1sc(NC(=O)CN2CCCCC2)c(C(=O)OCC)c1C | 1.2
27 | COC(=O)c1ccccc1NC(=S)NC(=O)c1ccco1 | 11.2
28 | O=C(Nc1nc(-c2ccc(Cl)cc2)cs1)C12CC3CC(CC(C3)C1)C2 | -5.9
29 | C/C(=N\OCc1nc2c3c4c(sc3ncn2n1)CCCC4)c1ccc(Br)cc1 | -8
30 | Cc1nnc(NC(=O)Nc2ccc(Cl)c(Cl)c2)s1 | 16.6
31 | CC1(C)CC(=O)C2=C(C1)OC1=C(C(=O)CC(C)(C)C1)C2c1cccc([N+](=O)[O-])c1 | 2
32 | CC(=O)OC1CCC2(C)C(=CCC3C2CCC2(C)C3CC3CC=CCC32C(C)=O)C1 (centres undefined) | -9
33 | COc1ccc(C2CC(=O)C3=C(C2)Nc2ccccc2NC3c2ccc(OC(C)=O)cc2)cc1 (centres undefined) | 5.9
34 | CCc1c(C)c2ccc(OC(C)=O)c(C)c2oc1=O | 9.1
35 | CC(C)CNC(=O)C(=O)Nc1cccc(Br)c1 | 32.6
36 | O=C(Nc1ccc([N+](=O)[O-])c(NC(=O)c2ccccc2F)c1)c1ccccc1F | 7.9
37 | O=C(CSc1cc(Cl)ccc1Cl)Nc1cccc(Br)c1 | 11.5
38 | O=C(/C=C/c1cccc(C(F)(F)F)c1)Nc1cccc(Br)c1 | 9.7
39 | CCc1ccc(NC(=O)c2cncc(Br)c2)cc1 | 15
40 | O=C(O)CCCCCN1C(=O)C(=O)/C(=C(/O)c2ccc(F)cc2)C1c1cccc([N+](=O)[O-])c1 (centres undefined) | -1
41 | COC(=O)c1c(NC(=O)COc2ccc(C)cc2Br)sc2c1C(C(=O)OC)CC2 (centres undefined) | 15.7
42 | O=C(Nc1ccc(S(=O)(=O)N2CCCCC2)cc1)c1ccco1 | -3
43 | Cc1ccc(C(=O)CC(O)(c2ccccc2)C(F)(F)F)cc1 (centres undefined) | 13.1
44 | Cc1c(N2C(=O)/C(=C3/C(=O)N(CC(N)=O)c4ccccc43)SC2=S)c(=O)n(-c2ccccc2)n1C | -11.3

Row | Compound | displacement [%]
45 | Cc1nc(-c2cccc(NC(=O)c3cccnc3)c2)cs1 | -2.2
46 | COc1ccc2c(c1)CC/C2=N\OC(=O)c1cccc2ccccc12 | 9.4
47 | COc1ccccc1CNC(=O)c1cccc(N(C)C)c1 | 2.6
48 | CCOC(=O)C(CCOc1cc(C)cc(C)c1C)C(=O)OCC | 13.1
49 | CCOC(=O)c1c(C)oc2cc(Br)c(O)c(C=O)c12 | 14.9
50 | Cc1ccc(S(=O)(=O)N2CCCC2)cc1[N+](=O)[O-] | -9.3
51 | CCOc1cc(/C=C2\C(=O)NC(=O)N(c3ccc(Br)c(C)c3)C2=O)ccc1OC | 41.5
52 | O=C(NCc1cccnc1)/C(=C/c1cccc(Oc2ccccc2)c1)NC(=O)c1ccccc1 | 9
53 | O=C(N/N=C/c1ccccn1)c1cccc([N+](=O)[O-])c1 | 0
54 | CCN(C(=O)c1ccc(Cl)c([N+](=O)[O-])c1)c1ccccc1C | -9
55 | CN(C)Cc1c(O)ccc2c(=O)c(-c3ccccc3)coc12 | 1.4
56 | O=C(O)CSCC(NC(=S)Nc1ccccc1)C(=O)O (centres undefined) | -17.6
57 | CC(=O)Nc1ccc(S(=O)(=O)NC(c2ccccc2)c2ccccc2)cc1 | -0.9
58 | N#CC1=C(N)Oc2c(c(=O)oc3ccccc23)C12C(=O)Nc1ccc(Br)cc12 (centres undefined) | 2.7
59 | OCCNC1CCCc2c1[nH]c1ccc(-c3ccccc3)cc21 (centres undefined) | 12.4
60 | CCOC(=O)c1c(C)nc(C)nc1NC(=O)c1ccccc1 | -5.5
61 | COc1ccc(N(CC(=O)N2CCCC2)S(C)(=O)=O)cc1 | 7.8
62 | C=C1c2ccc(C)cc2NC(=O)N1c1cccc(Cl)c1 | 12.9
63 | CCOc1ccc(N/C(N)=N\c2nc(C)cc(C)n2)cc1 | 1.1
64 | O=C(Nc1ccccc1C(=O)NCCO)c1ccccc1Cl | -7.4
65 | COCCCNC(=O)CN(c1ccc(C)cc1)S(=O)(=O)c1ccc(SC)cc1 | 8.4
66 | c1ccc(OCc2nc(-c3cccnc3)no2)cc1 | 5.8

Row | Compound | displacement [%]
67 | COc1ccccc1NC(=O)c1cc(I)ccc1Cl | 9.3
68 | CCOc1cc(C2Nc3ccccc3C(=O)N2Cc2ccco2)ccc1OCc1ccccc1Cl (centres undefined) | 12.4
69 | COc1cc(NC(=O)COc2cc(C)c(Cl)c(C)c2)cc(OC)c1 | -1.6
70 | Cc1nc(-c2ccccc2)nc(N/N=C/c2ccncc2)c1C | -5.8
71 | N#Cc1cc([N+](=O)[O-])cnc1Sc1ccccc1 | 14.5
72 | CSCCC(C(=O)O)N1C(=O)/C(=C\c2ccc(-c3ccc([N+](=O)[O-])cc3)o2)SC1=S (centres undefined) | -97.4
73 | COc1ccc(OC)c(CN2CCN(C(=O)c3ccc(OC)c(OC)c3)CC2)c1 | -6.3
74 | COCCNS(=O)(=O)c1ccc(OC)c(Br)c1 | -2.2
75 | COC(=O)CSc1nc(N)c2c3c(sc2n1)CCC3 | -4.3
76 | CC(C)Oc1ccccc1C1Nc2ccccc2NC2=C1C(=O)CC(c1ccc(Cl)cc1)C2 (centres undefined) | -2.8
77 | O=C(CSc1nc(-c2ccccc2)c(-c2ccccc2)o1)Nc1ccccc1 | -4.2
78 | Cc1cc2ncn(C(=O)N3CCOCC3)c2cc1C | 1.4
79 | CCOC(=O)c1ccc(NC(=O)c2ccc(Cl)cc2Cl)cc1 | -7.8
80 | O=C(NC(=S)Nc1ccc(Cl)cc1Cl)c1ccco1 | 14.1
81 | Cc1ccc(S(=O)(=O)N/N=C/c2ccccc2C(F)(F)F)cc1 | -8.8
82 | O=C(Nc1ccc(F)cc1)Nc1cccc2cccnc12 | 5.9
83 | COC(=O)c1ccc(N2C(=O)c3ccc4c5c(ccc(c35)C2=O)C(=O)N(c2ccc(C(=O)OC)cc2)C4=O)cc1 | 11.6
84 | O=S1(=O)N=C(OCc2ccccc2)c2ccccc21 | -4.7
85 | O=C(NCCCN1CCOCC1)c1ccc(F)cc1 | 1.7
86 | Fc1cccc(Cl)c1-c1nnc2ccc(C(F)(F)F)cn12 | -5
87 | COC(=O)c1cc(N=NC2=C(O)CC(C)(C)CC2=O)cc(C(=O)OC)c1 | -7.3
88 | CCOc1ccc(C(=O)Nc2ccccc2OC)cc1[N+](=O)[O-] | -1.9

Row | Compound | displacement [%]
89 | COc1ccc(/C=C2/SC(=O)N(CC(=O)Nc3cc(C)on3)C2=O)cc1OC | 12.8
90 | Cc1oc(C(=O)O)cc1CSCc1ccoc1C(=O)O | 0.6
91 | C/C=C/C(=O)N1c2ccc(C)cc2-c2c(ssc2=S)C1(C)C | 3.9
92 | CCOc1ccc(C(=O)N2CCN(c3ccccc3)CC2)cc1OCC | -0.6
93 | CCc1ccc(NC(=O)C2CCCCC2C(=O)O)cc1 (centres undefined) | -5.7
94 | Cc1ccc(C)c(NC(=O)CSc2nnc(C)s2)c1 | 0.8
95 | COc1ccc(OCC(=O)Nc2ccc(NC(=O)c3ccco3)c(OC)c2)cc1 | 17.1
96 | Cc1cccc(NC(=O)/C(=C\c2ccccc2Cl)NC(=O)c2ccccc2)c1 | 3.5
97 | O=C(CN(c1ccccc1)S(=O)(=O)c1ccccc1[N+](=O)[O-])N1CCCCC1 | -2.3
98 | COc1ccc(N(CC(=O)Nc2ccccc2Br)S(=O)(=O)c2ccccc2)cc1 | 11.2
99 | N#Cc1c(NC(=O)CO/N=C/c2ccccc2)sc2c1CCCC2 | 3.7
100 | Cc1ccnc(NS(=O)(=O)c2ccc(NS(=O)(=O)c3ccc([N+](=O)[O-])cc3)cc2)n1 | -11
101 | O=C(Nc1ccccc1)c1ccccc1O | -7.2
102 | COc1ccc(/C=C2\SC(=S)N(CCCC(=O)Nc3c(C)n(C)n(-c4ccccc4)c3=O)C2=O)cc1 | 120
103 | O=C(CCC(NC(=O)OCc1ccccc1)C(=O)OCc1ccccc1)Oc1ccc([N+](=O)[O-])cc1 (centres undefined) | 9.1
104 | Cc1ccc(NC(=O)c2ccc(-c3cccc(Cl)c3)o2)c([N+](=O)[O-])c1 | 11.6
105 | NS(=O)(=O)c1ccc(NC(=O)c2ccccc2[N+](=O)[O-])cc1 | 8.4
106 | Cc1sc2nc(SCC(=O)N3CCN(CCO)CC3)[nH]c(=O)c2c1C | -10.4
107 | COc1ccc(N2CCSC2C(=O)c2ccccc2)cc1 (centres undefined) | 9.2
108 | COc1cccc(OC)c1C(=O)Nc1ccccc1I | 13.2
109 | O=C(O)CCC(=O)Nc1ccc(NC(=O)c2ccc(Cl)cc2Cl)c(Cl)c1 | 13.8
